In all, about 150,000 compounds went through this assay and about 540 (0.36%) showed an effect of 50% or more. This is one part of the list.

The subject of this assay is Plasmodium falciparum. Description: Primary screen in NF54 nanoGlo assay, in single point, at 2uM, 72h; a lower Z score goes with more inhibition. Type of assay: functional, Erythrocyte. The following applies: timepoint 72 hour.
As usually defined, the % Inhibition is the change of the read-out against control, counted positive when it falls. As to `Fc1ccc(Cn2cc(C(F)(F)F)nc2-c2cccnc2)cc1F`, the “% Inhibition” value is given as -3% and the Z score is 0.37.
For `C[C@H]1CN(C(=O)c2cccn2C2CCCC2)CC2(CCC2)O1` the same measures were 0% and -0.01.
For `CC(C)(C)c1csc(C2CCN(C(=O)C3=COCCO3)CC2)n1` the same measures were 1% and -0.15.
For `CC(C)(C)c1cnc(COC(=O)COc2ccccc2F)o1` the same measures were -3% and 0.31.
As to `CC(=O)N[C@H]1[C@H](NC(=O)c2ccsc2)[C@@H]2CCO[C@@H]21`, the “% Inhibition” value is given as -8% and the Z score was determined as 0.87.
Take `O=C(NCCc1ccc2c(c1)OCO2)N1CCN(c2nccs2)CC1`: the “% Inhibition” value is reported as -48% and the Z score stood at 5.6.
For `CCOc1cccc(CN(CCO)C(=O)c2ccc([C@H]3CCCNC3)cc2)c1`, the “% Inhibition” value was -5% and the Z score was determined as 0.91.
As to `Cc1ccc(OC2CCN(Cc3ccncc3)CC2)c(C(=O)N2CC(O)C2)c1`, the “% Inhibition” value is -24% and the Z score stood at 2.54.
For `CC1(C)CN(CC(=O)NC[C@H]2CCCO2)CC(C)(C)O1` the same measures were -11% and 1.14.
As to `Cn1cnc(CNC(=O)Nc2ccnc(C3(C)CC3)n2)c1`, the “% Inhibition” value is -1% and the Z score was determined as 0.14.
On the same counts, the results for `O=C(c1ncc[nH]1)N1CCC[C@H](C(F)(F)F)C1` are 4% and -0.46.
For `O=C(CCC1CCCC1)Nc1ccc2c(c1)CCC2` the same measures were 2% and -0.28.
Turning to `Cc1cnc(C2CCC2)n1C[C@H]1CCCN(Cc2cn(C)c3ccccc23)C1`, the “% Inhibition” value is on record as 5% and the Z score is listed as -0.82.
For `Cc1ccsc1C(=O)N1CCC(N2C(=O)CC[C@H]2C(=O)NCc2cccnc2)CC1` the same measures were 1% and -0.09.
On the same counts, the results for `CCOC(=O)c1ccc(N2CCn3nc(C(=O)OC)cc3C2)nc1` are -3% and 0.38.
For `Nc1ccc(-c2nc3cc(S(=O)(=O)c4ccc5oc(-c6ccc(N)cc6)nc5c4)ccc3o2)cc1` the same measures were 31% and -3.47.
On to `Cn1ccc(C(=O)N(C2CC2)C2CN(C(=O)OC(C)(C)C)C2)n1`, for which the “% Inhibition” value is reported as -5% and the Z score stood at 0.68.
With `C[C@H](O)CCn1ccnc1-c1cccc(-c2ccco2)c1`, the “% Inhibition” value is listed as 0% and the Z score came to 0.05.
For `NC(=O)CN1CCCN(c2ccc3nnc(C(F)(F)F)n3n2)CC1` the same measures were 3% and -0.52.
For `Cc1ccc([C@H]2c3ccccc3CCN2C(=O)c2ccc(-c3cccc(Cl)c3)s2)cc1` the same measures were 1% and -0.15.
With `CC(C)=CCN1CC2(CCN(c3cnccn3)CC2)CC1=O`, the “% Inhibition” value is on record as -10% and the Z score is 1.21.
For `Cc1nscc1C(=O)Nc1ccnc(C(N)=O)c1` the same measures were -2% and 0.16.
Regarding `CC(C)CN1CCNC(=O)[C@@H]1CC(=O)NCCOC(C)C`, the “% Inhibition” value is given as -5% and the Z score was 0.57.
Take `O=C(NCC(c1cccs1)n1cccn1)C1CCOC1` (centres undefined): the “% Inhibition” value came to 8% and the Z score was -1.15.
For the compound `Cc1oncc1CNC(=O)c1ccno1`, the “% Inhibition” value was 0% and the Z score was -0.04.
Consider `OCC(O)C1OC(Nc2ccc(Br)cc2)C(O)C1O` (centres undefined), for which the “% Inhibition” value is listed as -11% and the Z score stood at 1.49.
Consider `C[C@@H](CN1CCN(C)CC1)OC(=O)COc1ccc(C(C)(C)C)cc1`, for which the “% Inhibition” value is on record as -8% and the Z score was determined as 1.07.
For `O=C(O)C[C@@H]1CN(C(=O)CCc2ccccc2F)C[C@@H]1c1c[nH]nn1` the same measures were -16% and 1.76.
Take `C[C@@H](C1CC1)N(C(=O)Cn1cnc2cc(F)c(F)cc2c1=O)C1CC1`: the “% Inhibition” value worked out at 4% and the Z score is on record as -0.44.
For `Cc1cc(C(=O)N2CC(Cn3c(C)cnc3-c3ccccc3)C2)n(C)n1` the same measures were -10% and 1.25.
For `Nc1nc(NCCO)cc(-c2ccc(-c3ccn[nH]3)cc2)n1` the same measures were 10% and -1.62.
As to `CCC(=O)Nc1nc(COC)ns1`, the “% Inhibition” value is on record as 9% and the Z score was -1.1.
For `CCOc1ccc(NC(=O)Cn2nc3c(N4CCOCC4)nc4ccccc4n3c2=O)cc1` the same measures were -3% and 0.42.
On to `CC1(N2CCOCC2)CN(c2ncc(Br)cn2)C1`, for which the “% Inhibition” value was 6% and the Z score is reported as -0.61.
On the same counts, the results for `CNC(=O)C[C@H](C)N(C)Cc1ccnc(C(C)C)n1` are -2% and 0.37.
In the case of `COc1cc(=O)n(-c2ccccc2)nc1C(=O)N1CCN(C(c2ccccc2)c2ccccc2)CC1`, the “% Inhibition” value was -11% and the Z score was 1.12.
As for `Cc1cc2c(cc1CN1CCN3C(=O)OC[C@H]3C1)OCO2`, the “% Inhibition” value is -10% and the Z score was 1.81.
For `FC(F)(F)c1cccc(N2CC(c3ccncc3)C2)n1` the same measures were -9% and 1.18.
Take `O=C(NC[C@H](CC1CC1)C(=O)O)c1ccc2sccc2c1`: the “% Inhibition” value is reported as -5% and the Z score was 0.6.
On the same counts, the results for `Cc1cc(C)cc(NC(=O)c2c(C)sc3ncnc(N4CCCC4)c23)c1` are -2% and 0.31.
On the same counts, the results for `N#Cc1nc2c(S(=O)(=O)c3ccccc3)c(N)n(Cc3ccc(F)cc3)c2nc1C#N` are -19% and 3.03.
On the same counts, the results for `Cc1cc(C(=O)N2CCOCC2)ccc1NCc1nccn1C` are -9% and 1.15.

The record behind these values is ChEMBL document CHEMBL4888484, “Replenishing the malaria drug discovery pipeline: Screening and hit evaluation of the MMV Hit Generation Library 1 (HGL1) against asexual blood stage Plasmodium falciparum ,using a nano luciferase reporter read-out” (2022).
